# In all, about 33,000 sequences were measured (“E-score (-0.5 to 0.5)”: median about -0.016, highest 2% from about 0.31 on). The list shows a part of the results.
# Target: Cst6 (UniProt P40535)
# Test: PBM E-score (8-mer binding enrichment) (E-score (-0.5 to 0.5)); higher = stronger / more preferred TF binding; most listed sequences are background and not binding sites
# Conditions: protein concentration: 200 nM; construct: GST-DNA-binding domain
# Outline: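 PURExpress in vitro transcription/translation supplied GST-tagged yeast transcription factors, either full-length or DNA-binding domain. Applied at about 100-200 nM to universal all-10-mer Agilent arrays double-stranded by primer extension, the bound protein was detected with fluorescent anti-GST. E-scores, modified Wilcoxon-Mann-Whitney statistics, were given by the Universal PBM Analysis Suite to ungapped eight-base words pooled with their reverse complements after masliner normalisation.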
row,Sequence,PBM E-score
1,ACCATTAC,0.143
2,CAACGTGG,-0.0306
3,TGCACCCA,-0.118
4,CGAAAGCA,-0.0132
5,GACTTCTC,-0.119
6,CATTGTCA,0.115
7,ATAGGGTC,-0.232
8,AGGTAGAC,-0.192
9,ACTGTGCC,0.03
10,AAGATCCG,-0.0741
11,GGTTTAGA,-0.0452
12,CTAACGAC,-0.00012
13,CGAGGCCC,-0.186
14,GGACAACC,-0.138
15,ATCCATGC,0.0231
16,CCAACGTA,0.0579
17,CCCTGAGA,-0.247
18,TGAAACAA,0.141
19,TACGCAGA,0.0959
20,AACCTCCG,-0.29
21,CGTAAGAC,0.0807
22,GCGTCCCA,-0.0692
23,AAAGCCCT,-0.115
24,TAGTATAA,0.18
25,ATCTGGGG,-0.256

row,Sequence,PBM E-score
1,CGAAGTAA,0.143
2,GCGATACA,-0.104
3,ATGGCCCC,-0.324
4,ACATCTGA,-0.232
5,ATATCAAT,0.289
6,CCGCGCTA,0.00083
7,ATCCTCTG,-0.0896
8,AATTGCAT,0.161
9,CTAGATAA,0.0735
10,ACGTGTAT,0.229
11,AACACTAG,-0.0628
12,ATACGGCA,0.394
13,ATGAGTTA,0.0635
14,ATACTAGA,0.209
15,TTCCAAAA,0.0844
16,CGCGGGTA,0.0365
17,AACGACTG,-0.0864
18,AGCTGCAT,0.0177
19,CACCTACG,0.189
20,AAATTTCC,0.00111
21,AGTAGGAT,-0.071
22,ACAAATGT,0.114
23,CAGCAAGG,-0.138
24,GAGGAAGA,-0.0614
25,GTTCCATA,-0.0948

row,Sequence,PBM E-score
1,CAGAATTA,0.0881
2,CAGTGGCA,0.00914
3,AGGGATGA,0.0692
4,AGTAGGGC,-0.0285
5,CCACCAGG,-0.342
6,ACCCTTTG,-0.145
7,CGTTTTAC,0.0669
8,AACGGGAT,-0.122
9,CTACGCCC,-0.173
10,CTATAAAC,0.0949
11,TAGTTCGA,0.0591
12,CAGTACGA,0.105
13,CTAGATTA,0.125
14,ACCGAAAC,0.0323
15,TCCAACGA,-0.00506
16,CTTAGGGC,-0.221
17,ATTGTGCC,0.116
18,CAAAGTCG,-0.101
19,AGTGGTAG,-0.139
20,GCGCGAAC,-0.0573
21,ATGGTAGG,-0.169
22,ACACGCTA,-0.148
23,GCGACTTA,-0.24
24,AGTCATGA,0.124
25,CTCCGTAC,-0.0438

row,Sequence,PBM E-score
1,CGATAAAG,0.0753
2,GACGTAGA,0.161
3,CAATGTAG,-0.254
4,AGGTCACC,0.0958
5,AGCCAGAG,-0.293
6,AGATCATG,0.137
7,ACGCCGGG,-0.254
8,ACCCAGCT,-0.238
9,CCTGTCTC,-0.318
10,AAGTGCAC,0.0174
11,AATAATAC,0.197
12,TACAGGCA,0.128
13,GTGTACAC,0.162
14,AGGGCATA,0.0409
15,CGTGTTAC,0.096
16,GTGAGTAA,0.0814
17,ATTAAATC,0.212
18,GTATAATA,0.288
19,ATTGATTA,0.308
20,ACGTCGCC,0.228
21,GTCCTAAA,0.0345
22,ACCGGGGG,-0.353
23,GAAATTGC,0.149
24,GGTTACAC,0.017
25,AAACCACG,-0.00602

row,Sequence,PBM E-score
1,CCCGAGAC,-0.189
2,ACCTGCAC,-0.0765
3,CATATCGC,0.068
4,GGGGGAAC,-0.43
5,CGGTGGTA,-0.213
6,GTAGGTCA,0.0527
7,GAGTTGGA,-0.0506
8,GACATCCA,0.0103
9,GCCAATCA,-0.176
10,GAGGCAGC,-0.201
11,CGCTAAGC,0.0541
12,AGGACTGA,-0.0524
13,AGTCATTA,0.0194
14,ACAGAGAC,-0.105
15,ACACTCGC,0.00886
16,GTATGGGA,-0.197
17,GGATCTCA,-0.146
18,CGTGATAC,0.089
19,AATGCGGC,0.266
20,CCTCCCTC,-0.162
21,GCAACTCC,-0.207
22,ATCAGATG,-0.0312
23,GAACCCAA,-0.141
24,ATTTGACG,0.292
25,ACTTAGGC,-0.205

row,Sequence,PBM E-score
1,ACCCCGTC,-0.348
2,CTGCCAAC,-0.229
3,GGCCCAAC,-0.169
4,GCTCTGAC,0.0346
5,ACCACATG,0.129
6,CCGGAACA,-0.0828
7,TAAATGAA,0.123
8,ACGGCCAG,-0.175
9,AAAGTCAA,0.0155
10,AGTTAAAC,0.159
11,AACCATGC,-0.0109
12,CTATCTAA,-0.129
13,GCAGGCAA,-0.0304
14,AGTCCAGG,-0.304
15,CAACCGCG,0.226
16,AACAAGAT,0.06
17,CGATGCAC,-0.106
18,AAATCAAT,0.199
19,CGGCCCCG,-0.138
20,AGGGTTAC,-0.0169
21,AGAACGGG,-0.0993
22,CTGAAAAA,-0.0734
23,CCTTATTC,-0.0876
24,ACAACGTA,0.224
25,ACACCGCC,-0.113

row,Sequence,PBM E-score
1,GATCACAC,-0.0313
2,AGGGTTTC,-0.232
3,CGGTTCCA,-0.153
4,GCTGTCAC,0.0464
5,CACTCTAG,-0.0706
6,CCCGGAGG,-0.327
7,ATGGTAAG,-0.138
8,GAAATTCC,-0.116
9,ACCTACAA,0.183
10,CTCGACTC,-0.113
11,GCGGACGC,0.0221
12,CCCATTGC,-0.0276
13,ACAGGTAC,-0.0446
14,TATCAGGA,0.111
15,CAAACATC,0.0453
16,AACGCGCC,0.0352
17,AAATAGTT,0.141
18,ATCACTGC,0.224
19,CGCCTCCA,-0.0617
20,GAACGATC,-0.0783
21,TCACTGGA,0.0607
22,CCTCCCGA,-0.29

# From the supplement of paper PMC3334620
